Measured values: the supplement of paper PMC3334620
In all, about 33,000 sequences were measured (“E-score (-0.5 to 0.5)”: median about -0.012, highest 2% from about 0.29 on). Some of the results follow.

The sequences below were run against T1, Ybr033w (UniProt P38073) (assay: PBM E-score (8-mer binding enrichment) (E-score (-0.5 to 0.5)); higher = stronger / more preferred TF binding; most listed sequences are background and not binding sites). Details: protein concentration: 200 nM; construct: GST-full length.
T1 sequence: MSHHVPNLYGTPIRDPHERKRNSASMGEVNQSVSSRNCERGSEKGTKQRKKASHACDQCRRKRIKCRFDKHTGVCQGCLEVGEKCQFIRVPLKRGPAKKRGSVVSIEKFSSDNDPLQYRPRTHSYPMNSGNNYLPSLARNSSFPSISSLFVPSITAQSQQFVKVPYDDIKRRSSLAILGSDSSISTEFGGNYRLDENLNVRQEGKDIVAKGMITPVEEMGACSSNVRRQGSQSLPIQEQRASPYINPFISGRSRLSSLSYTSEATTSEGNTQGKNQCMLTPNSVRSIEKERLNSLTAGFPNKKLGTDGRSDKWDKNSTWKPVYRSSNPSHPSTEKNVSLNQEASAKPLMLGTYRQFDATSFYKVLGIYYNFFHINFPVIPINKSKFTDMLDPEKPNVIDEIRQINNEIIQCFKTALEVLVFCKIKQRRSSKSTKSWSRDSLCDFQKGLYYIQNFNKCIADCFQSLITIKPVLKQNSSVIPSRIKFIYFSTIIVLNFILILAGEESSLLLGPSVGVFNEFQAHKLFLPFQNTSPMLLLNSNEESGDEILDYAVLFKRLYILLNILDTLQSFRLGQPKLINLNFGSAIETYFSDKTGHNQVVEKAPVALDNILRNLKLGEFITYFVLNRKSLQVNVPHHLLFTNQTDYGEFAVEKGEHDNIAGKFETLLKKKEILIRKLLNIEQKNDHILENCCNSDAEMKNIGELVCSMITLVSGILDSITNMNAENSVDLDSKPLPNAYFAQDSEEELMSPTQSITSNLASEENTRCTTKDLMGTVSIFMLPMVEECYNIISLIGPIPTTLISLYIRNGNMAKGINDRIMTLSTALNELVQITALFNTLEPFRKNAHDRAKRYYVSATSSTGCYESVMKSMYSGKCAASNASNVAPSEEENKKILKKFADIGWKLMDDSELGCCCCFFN
How it was run: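 Universal all-10-mer Agilent arrays, fresh or stripped once, were converted to double-stranded form by primer extension. GST-tagged yeast transcription factors from PURExpress in vitro transcription/translation, full-length or DNA-binding domain only, were applied at about 100-200 nM and detected with fluorescent anti-GST. After masliner normalisation, the Universal PBM Analysis Suite scored each ungapped eight-base word together with its reverse complement by E-score.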

Row | Sequence | PBM E-score
1 | AATATAGC | 0.156
2 | GAGTTCGA | 0.0995
3 | AATCGGGG | -0.125
4 | GCTCTCGA | -0.0693
5 | ACATAGGA | -0.0823
6 | ACTAGAGC | -0.135
7 | CAGCCGCC | -0.209
8 | CGACTTAG | 0.0431
9 | AACGGCGT | -0.00651
10 | AGTACGAG | 0.0203
11 | GCTAACTA | 0.226
12 | ACTCTTCG | -0.00261
13 | GCCCTAAA | -0.297
14 | GCCCCTTA | -0.306
15 | ACTAACAT | 0.238
16 | GAGTTTAC | 0.131
17 | ACTCCAGT | 0.175
18 | CTACTGTC | -0.00043
19 | ACCAAACG | -0.166
20 | TGCCCAAA | -0.185
21 | AAGGTGGG | -0.188
22 | AACCTAAC | 0.136

Row | Sequence | PBM E-score
23 | GGCATTTA | -0.141
24 | CCAGATAA | 0.00728
25 | AAGTGCCT | -0.246
26 | ACCCTGCG | -0.113
27 | ATGTGTAC | 0.0114
28 | AGCACTAC | -0.0548
29 | ATGAGCTG | 0.00037
30 | CAAGCAGA | 0.127
31 | ATAGCGCC | -0.0787
32 | ATTCGCCC | -0.175
33 | ATTAGCTA | 0.0575
34 | CAACCGGC | -0.0855
35 | AAACGGAA | 0.341
36 | GCGGAGGA | -0.249
37 | CCTATGGA | -0.0388
38 | CAACTAAC | 0.152
39 | CCAGACGC | -0.2
40 | ACGCGTGG | -0.279
41 | CCTGGTGC | -0.109
42 | AAAAAATT | 0.237
43 | AGTCCCAG | -0.276
44 | GGGCCGCA | -0.247

Row | Sequence | PBM E-score
45 | CCGTTAAC | -0.11
46 | CTCCTTGA | -0.136
47 | AGTTGGAC | -0.0273
48 | ACGAGTAT | 0.066
49 | CACCAGGG | -0.279
50 | CATGTTGG | 0.0198
51 | GGCAATCA | -0.0475
52 | ACCAAGCT | 0.144
53 | AAATGAAG | 0.133
54 | ACAAACCA | -0.0763
55 | ACTGCTGA | -0.0957
56 | AACGCGCA | -0.0574
57 | AGATCAAA | 0.111
58 | CCTGTAGA | 0.00718
59 | GCCATCTA | -0.0362
60 | AGAATAAG | 0.14
61 | ATACCCTG | -0.0579
62 | ACTCCACG | -0.183
63 | ATAATAAC | 0.159
64 | CTGAGTAA | 0.183
65 | CTAAGCCA | -0.109
66 | CGTTGAAG | -0.0551

Row | Sequence | PBM E-score
67 | TACGTGGA | 0.0301
68 | CCTTGTCC | -0.241
69 | AGTCAGCA | -0.112
70 | ACAGGGGA | -0.174
71 | AGCTTAAT | 0.193
72 | CTCTGCTC | -0.16
73 | CCTCTAGA | 0.0207
74 | GCGAGTAC | 0.0326
75 | ATACTTGC | 0.125
76 | CCGAGGCC | -0.37
77 | ATACTTCC | 0.204
78 | CAACTGTC | -0.0864
79 | ACGTGGGG | -0.214
80 | ATACGAGA | 0.0345
81 | GAATACTC | 0.0489
82 | GACTGGGC | -0.252
83 | GTCGATGA | -0.0835
84 | CGATCTGC | -0.249
85 | GCGAGGTA | -0.127
86 | AGGTCAGA | -0.123
